Measurements: PubChem BioAssay AID360 (National Center for Advancing Translational Sciences (NCATS), 2006)
Out of some 48,000 compounds screened, about 550 (1.1%) were called active. Inconclusive results (about 4%) are left out. Rule as the data show it: active = potency below about 15 µM; inconclusive = mostly about 16 µM to 33 µM; inactive = weaker than that. The list shows a part of the results.

These compounds were tested against Lysosomal acid glucosylceramidase (Homo sapiens) (UniProt P04062) (assay: Glucocerebrosidase). Details: purified enzyme, resorufin glucoside fluorescence (screen aimed at inhibitors), 20 min; series mostly up to 77 µM.
UniProt P04062, sequence (P04062 whole entry, looked up): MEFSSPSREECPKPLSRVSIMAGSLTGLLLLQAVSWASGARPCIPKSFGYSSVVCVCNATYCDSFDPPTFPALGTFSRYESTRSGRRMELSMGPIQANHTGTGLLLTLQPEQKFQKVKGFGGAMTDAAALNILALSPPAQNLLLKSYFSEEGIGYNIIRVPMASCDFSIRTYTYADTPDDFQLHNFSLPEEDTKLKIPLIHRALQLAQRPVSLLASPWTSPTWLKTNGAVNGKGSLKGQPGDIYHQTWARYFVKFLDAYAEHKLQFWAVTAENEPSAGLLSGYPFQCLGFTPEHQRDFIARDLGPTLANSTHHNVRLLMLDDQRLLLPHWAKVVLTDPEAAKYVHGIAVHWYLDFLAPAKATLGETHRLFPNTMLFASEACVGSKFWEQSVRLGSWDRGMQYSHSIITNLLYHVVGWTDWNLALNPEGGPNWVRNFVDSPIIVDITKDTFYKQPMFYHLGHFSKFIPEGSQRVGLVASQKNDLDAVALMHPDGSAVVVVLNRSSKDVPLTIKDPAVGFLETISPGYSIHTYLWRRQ
Method in brief: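 Compounds titrated against 0.2 nM normal enzyme, 30 uM resorufin beta-D-glucopyranoside substrate, citrate/phosphate buffer with taurocholate and tween-20, pH 5.9. Reaction ran 20 min at room temperature; fluorescence (Ex 548/Em 600) gave AC50.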
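Also: the screen sought inhibitors.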
Potency is read from the fitted curve at half-maximal effect.

Row | Compound | Potency
1 | COCCn1c(-c2ccc(OC)cc2)cnc1SCC(=O)Nc1cc(C)on1 | inactive: > 76.9 µM
2 | COC(=O)c1sccc1NC(=O)Cn1cnc2c1c(=O)n(C)c(=O)n2C | inactive: > 76.9 µM
3 | CCOC(=O)C1CCCN(C(=O)COC(=O)c2cc(=O)c3ccccc3o2)C1 (centres undefined) | inactive: > 76.9 µM
4 | Cc1cc(C)nc(Nc2ccccc2Br)n1 | inactive: > 76.9 µM
5 | N=c1n(Cc2ccccc2)c2ccccc2n1CC(O)c1ccco1 (centres undefined) | inactive: > 76.9 µM
6 | N#Cc1nc(-c2ccc(OCc3ccccc3)cc2)oc1NCCN1CCOCC1 | inactive
7 | O=C(CCCn1c(=O)[nH]c2cc(Cl)ccc2c1=O)NCCN1CCN(c2ccccc2)CC1 | inactive: > 76.9 µM
8 | COc1ccc(CNc2oc(-c3cccc4ccccc34)nc2C#N)cc1 | inactive: > 76.9 µM
9 | CCn1c(COc2ccc(Cl)cc2)nnc1SCc1ccc(C#N)cc1 | inactive: > 76.9 µM
10 | COc1ccc(S(=O)(=O)Nc2ccc3c(c2)COC3=O)cc1OC | inactive: > 76.9 µM
11 | O=C(Cc1cn2ccsc2n1)OCc1ccccc1 | inactive: > 76.9 µM
12 | CCOC(=O)C1CCN(C(=O)Cn2cc(C#N)c3ccccc32)CC1 | inactive: > 76.9 µM
13 | COc1ccc(CCNC(=O)C2CCN(Cc3nc(-c4ccccc4C)oc3C)CC2)cc1OC | inactive: > 76.9 µM
14 | COc1ccc(C(c2nnnn2C(C)(C)C)N2CCN(C)CC2)cc1OC (centres undefined) | inactive: > 76.9 µM
15 | COc1ccc(S(=O)(=O)NCCSCc2cccs2)cc1 | inactive: > 76.9 µM
16 | Cc1ccccc1C(NC(N)=O)c1ccccc1 (centres undefined) | inactive: > 76.9 µM
17 | O=C(Nc1ccccc1N1CCCCC1)c1ccc2nccnc2c1 | inactive: > 76.9 µM
18 | COc1cc(NC(=O)Cn2nnc(-c3ccncc3)n2)cc(OC)c1 | inactive: > 76.9 µM
19 | COC(=O)c1ccc(NC(=O)CSc2nnc(CNc3ccc(F)cc3)n2C)cc1 | inactive: > 76.9 µM
20 | Cc1cc2ncc(C(=O)Nc3ccccc3)c(C)n2n1 | inactive: > 76.9 µM

Row | Compound | Potency
21 | CCOc1ccccc1-n1c(SCC(N)=O)nc2ccccc2c1=O | inactive: > 76.9 µM
22 | CCC(=O)Nc1ccccc1C(=O)N1CCOCC1 | inactive: > 76.9 µM
23 | O=C1CC(c2cccs2)CC2=C1C(c1ccccc1)n1ncnc1N2 (centres undefined) | inactive: > 76.9 µM
24 | Cc1ncoc1C(=O)NCc1ccccc1Cl | inactive: > 76.9 µM
25 | Cc1nc(S(=O)(=O)N(C)c2ccccc2)c(C#N)c(C)c1Cl | inactive: > 76.9 µM
26 | CCOc1cc(N2CCOCC2)c(OCC)cc1NS(=O)(=O)c1ccc(Cl)s1 | inactive: > 76.9 µM
27 | O=C1CC(=O)N(Cc2ccco2)C(=O)N1 | inactive: > 76.9 µM
28 | Cc1cccn2c(=O)c3cc(C(=O)N(C)C)n(C)c3nc12 | inactive: > 76.9 µM
29 | Cn1c(=O)c2c(nc(NCCCO)n2C/C=C/c2ccccc2)n(C)c1=O | inactive: > 76.9 µM
30 | CCOCCCn1c(=S)[nH]c2cc(C(=O)NCCN(CC)CC)ccc2c1=O | inactive: > 76.9 µM
31 | CCc1ccc(NC(=O)C2CC(=O)N(C(C)C)C2)cc1 (centres undefined) | inactive: > 76.9 µM
32 | CCCCOc1ccc(Cl)cc1CSc1nncn1N | inactive: > 76.9 µM
33 | Cn1c(=O)c2ccccc2n(Cc2ccccc2F)c1=O | inactive: > 76.9 µM
34 | COc1ccc2c(C(=O)CN(C)C3CCCCC3)c[nH]c2c1 | inactive: > 76.9 µM
35 | O=C(CN1C(=O)C2C3C=CC(C3)C2C1=O)NCCc1ccccc1 (centres undefined) | inactive: > 76.9 µM
36 | FC(F)(F)c1cnc(Nc2ccc(N3CCOCC3)cc2)c(Cl)c1 | inactive: > 76.9 µM
37 | COc1ccccc1Nc1nc(N)nc(CN2CCN(c3ccccc3F)CC2)n1 | active: 2.37 µM
38 | C/C(Cl)=C\Cn1c(NCCc2ccccc2)nc2c1c(=O)n(C)c(=O)n2C | inactive: > 76.9 µM
39 | COc1ccc(CCNS(=O)(=O)c2cccc(F)c2)cc1OC | inactive: > 76.9 µM
40 | Cc1onc(-c2ccccc2)c1C(=O)Nc1nc(-c2ccc(F)c(F)c2)cs1 | inactive: > 76.9 µM

Row | Compound | Potency
41 | O=C(O)CCCCNS(=O)(=O)c1ccc(Cl)c(C(F)(F)F)c1 | inactive: > 76.9 µM
42 | CCOC(=O)/C=c1\s/c(=C\c2ccc3c(c2)OCCO3)c(=O)n1CC(=O)NCC1CCCO1 (centres undefined) | inactive: > 76.9 µM
43 | O=C(c1cccc2ccccc12)N1CCN(c2ccccc2F)CC1 | inactive: > 76.9 µM
44 | CC(C)c1ccc(-c2nnn(CCC(=O)O)n2)cc1 | inactive: > 76.9 µM
45 | Cc1ccc(N(CC(=O)Nc2cccc(C)c2)S(=O)(=O)c2cccc3nonc23)cc1 | inactive: > 76.9 µM
46 | CC(C)OC(=O)CSc1nnc(-c2ccc(Cl)cc2)n1N | inactive: > 76.9 µM
47 | O=C(CN(Cc1ccc(F)cc1)C(=O)c1ccco1)NCc1ccc(F)cc1 | inactive: > 76.9 µM
48 | COc1ccc(-c2oc3ncnc(NCCN4CCOCC4)c3c2-c2ccc(OC)cc2)cc1 | inactive
49 | O=C(c1ccc(O)cc1)c1ccc(C(=O)O)c(C(=O)O)c1 | inactive: > 76.9 µM
50 | CCOC(=O)C(C)(C)C(=O)C(C)(C)C(O)c1ccccn1 (centres undefined) | inactive: > 76.9 µM
51 | CN(C(=O)c1cccc(C#N)c1)c1nnc(-c2ccncc2)s1 | inactive: > 76.9 µM
52 | CCCN(Cc1cc2cc(C)ccc2[nH]c1=O)S(C)(=O)=O | inactive: > 76.9 µM
53 | CC(C)c1nc(-c2ccccn2)no1 | inactive: > 76.9 µM
54 | CC1CCN(c2ccc(C(=O)O)cc2N)CC1 | inactive: > 76.9 µM
55 | CCCCCCn1c(CN2CCN(Cc3ccccc3)CC2)nc2c1c(=O)n(C)c(=O)n2C | inactive: > 76.9 µM
56 | Cn1c(Cc2ccccc2)nnc1SCCC(=O)Nc1ccccc1 | inactive: > 76.9 µM
57 | Cc1ccc(C(=O)Nc2c(C(=O)NCc3ccco3)cnn2-c2ccccc2)cc1 | inactive: > 76.9 µM
58 | Cc1cc(C)c2nc(-c3ccccn3)cc(C(=O)NCc3ccco3)c2c1 | inactive: > 76.9 µM
59 | Nn1c(SCC(=O)Nc2ccccc2F)nnc1-c1cccnc1 | inactive: > 76.9 µM
